Measurements from PMC4336329 (PLoS ONE, 2015).
Screen size: about 310,000 compounds; about 2,200 (0.71%) showed an effect of 50% or more. Effects have a minus sign here. The list shows a part of the results. Where a SMILES comes first, the peptide text is derived from it. [ ]: non-standard residue; d: D form. ξ: configuration not given here. ξV = CC(C)C(N)C(=O)O

target: human ether-à-go-go-related gene (hERG) potassium channel (human, UniProt Q12809); assay: primary screen, population patch clamp on CHO cells stably expressing hERG
Sequence (Q12809 whole entry, looked up): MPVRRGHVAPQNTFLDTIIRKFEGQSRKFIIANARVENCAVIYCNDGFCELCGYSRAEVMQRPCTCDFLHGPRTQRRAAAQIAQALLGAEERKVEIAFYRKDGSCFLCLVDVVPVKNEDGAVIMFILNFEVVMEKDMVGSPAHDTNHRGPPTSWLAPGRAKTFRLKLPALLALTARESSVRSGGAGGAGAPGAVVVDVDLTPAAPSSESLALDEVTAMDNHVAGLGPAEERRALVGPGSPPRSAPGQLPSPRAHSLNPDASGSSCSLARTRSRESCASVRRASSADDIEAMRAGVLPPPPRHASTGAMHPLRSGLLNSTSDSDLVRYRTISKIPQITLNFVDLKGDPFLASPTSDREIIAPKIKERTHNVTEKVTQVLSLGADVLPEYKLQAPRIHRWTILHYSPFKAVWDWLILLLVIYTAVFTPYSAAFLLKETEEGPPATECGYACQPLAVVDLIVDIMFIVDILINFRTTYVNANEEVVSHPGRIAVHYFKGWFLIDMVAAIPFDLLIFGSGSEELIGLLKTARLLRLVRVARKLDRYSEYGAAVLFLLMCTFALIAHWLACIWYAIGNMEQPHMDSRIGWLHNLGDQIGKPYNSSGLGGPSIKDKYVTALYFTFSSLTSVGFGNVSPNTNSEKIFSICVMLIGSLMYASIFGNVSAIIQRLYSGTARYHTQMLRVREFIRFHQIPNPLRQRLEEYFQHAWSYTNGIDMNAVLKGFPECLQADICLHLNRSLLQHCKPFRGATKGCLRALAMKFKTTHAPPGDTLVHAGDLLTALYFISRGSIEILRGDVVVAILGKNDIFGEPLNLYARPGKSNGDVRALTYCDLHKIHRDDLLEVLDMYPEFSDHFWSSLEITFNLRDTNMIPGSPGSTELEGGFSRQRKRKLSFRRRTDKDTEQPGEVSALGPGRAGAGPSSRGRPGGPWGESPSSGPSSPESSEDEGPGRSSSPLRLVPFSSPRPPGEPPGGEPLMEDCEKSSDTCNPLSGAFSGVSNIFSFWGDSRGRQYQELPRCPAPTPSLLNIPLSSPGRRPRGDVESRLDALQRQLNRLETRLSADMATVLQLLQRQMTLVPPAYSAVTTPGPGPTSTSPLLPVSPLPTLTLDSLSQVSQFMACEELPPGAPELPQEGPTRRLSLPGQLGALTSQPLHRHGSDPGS

SMILES | hERG current change (%, negative = inhibition) at 1uM [%]
O=C(NCCN1CCCC1)c1cc(-c2ccncc2)nc2ccc(S(=O)(=O)N3CCOCC3)cc12 | 12.6
CSc1ccc(/C=C2\C(=N)N3N=C(CC(=O)N4CCOCC4)SC3=NC2=O)cc1 | 14
Cc1cccc(NC(=O)CC2NCCNC2=O)c1 (centres unmarked) | 16.5
COc1ccc(N2CCN(Cc3nnnn3C3CCCCC3)CC2)cc1 | 12.6
O=C(NCCCn1ccnc1)C(=O)NCC1OCCN1S(=O)(=O)c1ccc(Cl)cc1 (centres unmarked) | 23.6
Cc1cc(C)nc(SC2CC(=O)N(c3ccc(C)c(C)c3)C2=O)n1 (centres unmarked) | 12.1
O=C(NCc1ccc(Cl)cc1)C1CCN(C(=O)c2ccco2)CC1 | -6
CCOc1cc(C(=O)N2CCC3(CC2)OCCO3)cc(OCC)c1OCC | -5.42
CCc1ccc(C(=O)COC(=O)CNC(=O)COc2ccccc2)cc1 | -18.6
COc1ccc(-c2nc3ccc(C)cc3c(=O)o2)cc1OC | 6.35
O=S(=O)(c1ccccc1)c1nc(Cc2ccccc2)oc1N1CCOCC1 | 15.3
Cc1cc2cc(CNC(=O)CC(C)C)ccc2n1C | 12.6
Cn1c(N2CCOCC2)nc2c1c(=O)n(Cc1ccc(Cl)cc1)c(=O)n2C | -1.41
c1ccc2c(c1)ccc1nnnn12 | 11.3
CCOc1ccc(N(CC(=O)NC(C)(C)C)C(=O)CCC(=O)Nc2nccs2)cc1 | 3.66
O=C(Nc1cccc(NC(=O)c2ccco2)c1)c1ccc2c(c1)OCCO2 | 4.23
CN(C)c1ccc(/C=C/C(O)=C2/C(=O)N(C)C3(C)CC2c2ccccc2O3)cc1 (centres unmarked) | 18
CCn1cc(S(=O)(=O)CC(=O)Nc2ccc3c(c2)OCCO3)c2ccccc21 | -0.708
Cc1ccc2nc(-c3ccccc3Cl)cc(C(=O)Nc3cc(C)on3)c2c1 | 0.124
COc1ccccc1C1CCN(C(=O)c2cccs2)CC1 | 7.81
COC(=O)c1c(C)[nH]c(C(=O)NCCc2ccc(S(N)(=O)=O)cc2)c1C | 18.4
O=C(NCc1ccccc1)c1ccc(NC(=O)C2CCCO2)cc1 (centres unmarked) | 0.0594

SMILES | hERG current change (%, negative = inhibition) at 1uM [%]
Cc1ccc(NC(=O)NCc2ccc3c(c2)OCO3)cc1 | -0.265
C/C=C(\C)C(=O)NCCN1C2=NC[C@H](Cc3ccc(O)cc3)N2C[C@H]1Cc1ccc(O)cc1 | 15.5
O=C(CCC(=O)c1cccs1)NCc1cccc(C(F)(F)F)c1 | 4.3
CSc1nncn1/N=C/c1ccccc1F | 7.89
CCN=C1S/C(=C\c2cn(CC)c3ccccc23)C(=O)N1CC | 0.533
Cc1nn(C)c(C)c1NC(=O)c1ccc(S(=O)(=O)N(C)C)cc1 | 10.3
COc1ccc(CNC(N)=O)cc1 | -2.86
COc1ccccc1N(C)S(=O)(=O)c1ccc(Cl)c(C(=O)N2CCC2)c1 | -0.394
CCOC(=O)c1cc(C)nc(Sc2ccc(C)cc2)c1C#N | 8.44
CC(=O)NC(C(=O)NCC(N)=O)C(C)C (centres unmarked) (Ac-[ξV]-Gly-NH2) | 5.93
CCc1c(C)nc2cc(C)[nH]n2c1=O | 10.4
CC1=Nc2cc(C(=O)NCCCOC(C)C)ccc2Sc2ccc(C)cc21 | 1.49
Cc1c(C(=O)Nc2cc(F)cc(F)c2)cnn1-c1ccccc1 | 21.2
CN(C)c1nc(NCc2ccccc2)nc(SCC(=O)Nc2ccccc2)n1 | 14.5
Cc1ncc(CSc2nnnn2-c2ccccc2)c(N)n1 | 15.2
CCOC(=O)c1cc(OC(=O)c2ccccc2Br)n(-c2ccccc2)n1 | -15.2
Cc1nc(SCC(=O)Nc2ccc3c(c2)OCCO3)nc(C)c1C | 19.7
O=C(Nc1nc2ccccc2s1)c1ccc(Cl)s1 | -0.0455
COc1cccc(Nc2ccc(C(=O)O)cc2[N+](=O)[O-])c1 | 9.59
CCOC(=O)N1CCN(CC(=O)c2ccc(O)cc2O)CC1 | 8.27
CCC(CC)N=C1NS(=O)(=O)c2cc([N+](=O)[O-])ccc21 | 10.8
COc1ccccc1N1C(=O)CC(N(O)c2ccccc2)C1=O (centres unmarked) | 27.7
